# In the supplement of paper PMC12217912:
# Some of the results follow. Sequences were assembled here from the parent chain. Inactive controls read about 0.05.
# B1: TEV protease; numbered along this chain (parent)
# chain: MGESLFKGPRDYNPISSSICHLTNESDGHTTSLYGIGFGPFIITNKHLFRRNNGTLVVQSLHGVFKVKDTTTLQQHLVDGRDMIIIRMPKDFPPFPQKLKFREPQREERICLVTTNFQTKSMSSMVSDTSCTFPSGDGIFWKHWIQTKDGQCGSPLVSTRDGFIVGIHSASNFTNTNNYFTSVPKNFMELLTNQEAQQWVSGWRLNADSVLWGGHKVFMVKPEEPFQPVKEATQL
# Variants of: B1
# Assay: raw area under fraction-flipped curve 0-4 h after induction (AUC4h, not background-subtracted), DNA-recorder readout of cleavage of the substrate (dimensionless); higher = more cleavage of the substrate by the protease variant
# Details: temperature: 34 °C; time window: 0-4 h after rhamnose induction
# Method: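 In vivo DNA recorder in E. coli TOP10(DE3) ΔrhaA at 34 °C. Each TEVp single-site mutant (parent TEVp 0) is paired with a single-site variant of the 7-mer TEVs (canonical ENLYFQ|S). The substrate sits between flexible linkers in a Bxb1-sfGFP-TEVs-SsrA fusion, so cleavage stabilises Bxb1 and speeds flipping of a recombination array, read by NGS. The value is the raw area under the fraction-flipped curve over 0-4 h after rhamnose induction (AUC4h), with ≥20 reads per time point. It is not background-subtracted; inactive controls average about 0.047.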
# 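Further: Bxb1 expression induced with 0.2% (w/v) L-rhamnose at OD600 near 0.5, cultures sampled hourly, flipped fraction per protease–substrate barcode pair counted by paired-end Illumina sequencing.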
Variant,area with substrate ENLYFAS,area with substrate ENLYFCS,area with substrate ENLYFDS,area with substrate ENLYFES,area with substrate ENLYFFS,area with substrate ENLYFIS,area with substrate ENLYFKS,area with substrate ENLYFLS,area with substrate ENLYFNS,area with substrate ENLYFPS,area with substrate ENLYFRS,area with substrate ENLYFSS,area with substrate ENLYFTS,area with substrate ENLYFWS,area with substrate ENLYFHS,area with substrate ENLYFMS,area with substrate ENLYFVS,area with substrate ENLYFYS,area with substrate ENLYFGS
W212F,0.0545,0.0595,0.0755,0.0578,0.0583,0.0474,0.0492,0.0547,0.0713,0.0713,0.0673,0.0584,0.0555,0.0589,–,–,–,–,–
W212D,0.0588,–,–,0.0542,0.0797,0.0532,0.0618,–,–,0.051,0.0553,–,0.0591,0.0663,0.0319,0.066,0.0661,–,–
G166N,0.0445,0.0366,–,0.025,0.0654,0.0486,–,0.049,0.0552,0.0584,0.0392,–,0.0536,0.0369,–,0.0374,0.0509,0.0531,–
G166P,0.0383,–,–,0.0336,0.0802,–,0.0508,–,0.0335,0.0431,–,0.0513,–,–,–,–,0.051,–,–
I164T,0.0571,0.0439,0.0433,–,0.0559,0.0599,0.0578,–,0.0563,–,0.0528,–,–,0.0392,0.0367,0.0527,0.039,0.0335,0.0676
I164P,0.0362,0.0461,0.0523,0.0534,0.0626,0.05,0.0549,–,0.0568,0.045,0.041,0.0371,0.0527,0.0534,–,0.0515,–,0.0521,0.0476
I164W,0.0623,0.038,–,0.0524,0.0446,0.0652,0.0488,0.0545,–,–,–,0.0539,0.0467,0.0377,0.0528,0.0457,0.0599,–,–
L190W,0.0681,0.052,0.0609,0.0663,0.085,0.045,0.0715,–,–,0.0562,–,0.0883,0.0479,0.0613,0.0376,0.0582,0.0767,0.0445,–
H215E,0.0499,–,–,0.0594,0.0573,0.0531,0.0646,0.0326,0.0631,0.0543,–,–,0.0585,0.0649,–,0.0512,–,–,–
H215R,0.0413,0.0584,–,–,0.0498,0.0525,–,0.0565,0.0664,–,0.0612,0.0548,0.0627,0.0494,0.0543,0.0823,–,–,–
V165S,0.0471,0.049,–,0.0616,0.0504,0.046,0.0449,–,0.0551,0.0448,0.0511,0.034,0.0415,0.0542,0.0454,0.0475,0.0352,–,–
V165F,0.0492,0.045,–,0.072,0.0648,0.0459,0.0488,–,–,–,0.0341,–,0.0559,0.0533,0.0554,0.064,0.0482,–,–
V183Y,0.0585,0.0471,0.0491,–,0.0639,0.0447,0.0287,–,0.0696,0.0531,0.0438,0.0434,0.0516,0.0537,–,0.0493,0.0573,–,–
V183F,0.0622,–,0.0495,0.0636,–,0.0574,–,0.0587,0.0593,0.0581,0.0467,0.0646,0.0579,0.0263,0.0605,0.0616,0.0512,–,0.0334
N206T,0.0327,0.0869,–,–,0.0769,0.0515,0.0589,–,0.0597,0.0621,0.0654,–,0.0637,0.0614,–,0.0573,–,–,–
K185E,0.0548,–,0.0584,0.0678,0.0625,–,0.0577,–,0.0812,–,–,0.041,0.0723,0.0507,0.0379,0.0696,–,0.0588,0.102
K185I,0.0627,0.0364,0.0575,0.0682,0.0496,0.0587,0.0655,0.0377,0.067,0.0561,–,0.0567,0.0492,–,0.069,0.0684,0.0542,–,–
N175D,0.0587,0.0623,0.0609,–,0.0728,0.0691,0.0677,0.0599,–,0.0687,–,–,–,0.0643,–,0.0514,–,0.035,0.0553
R204Q,0.0458,0.0602,0.0738,0.0731,0.0754,0.0495,0.0505,–,–,0.0602,0.0691,0.0737,0.0598,0.0578,0.0722,0.0614,–,0.0713,–
T176W,0.0546,–,0.0446,0.0673,0.0828,0.0534,–,–,0.0636,–,0.036,–,–,0.0434,0.0578,0.0542,–,–,0.0458
A196I,0.0696,0.0567,0.0631,0.0701,0.0614,0.0544,–,0.0527,0.0561,0.0558,0.0435,0.0816,0.0558,0.0562,0.0524,0.0666,0.0432,0.0534,0.0668
A196Q,0.0541,–,–,0.0666,0.0653,0.0676,0.0666,–,0.0625,0.0566,0.0611,–,0.0562,0.0622,–,–,0.0632,–,–
A196H,0.0341,–,0.0561,–,0.0636,0.0526,0.065,0.0847,0.0669,0.0423,0.0463,0.0585,–,0.0527,0.0659,0.0774,–,–,0.0571
F218L,0.0595,0.044,0.0593,0.0631,0.0746,0.0444,0.0872,0.0534,0.0424,0.0603,0.0503,–,0.056,–,–,0.0605,0.0464,–,–
S17R,–,0.0688,–,0.0576,0.0692,0.0546,0.032,0.0766,0.046,0.0622,0.052,0.063,0.0538,0.0713,0.0599,0.0938,0.0687,0.0599,–
P222Y,0.0364,0.0525,0.0594,0.0635,0.0659,0.0582,–,0.0664,0.0724,0.0682,–,0.0653,–,0.0588,0.0734,0.0611,–,0.0388,–
